Results taken from PubChem BioAssay AID624296 (National Center for Advancing Translational Sciences (NCATS), 2012).
Among all 350,000 compounds or so, about 9,900 (2.8%) were called active. The inconclusive results got no clear call from the source; some entries with a clear call stand among them for comparison. The call rests on the fitted dose curve; in most records, active means well fitted activation curve with a large enough effect; inconclusive means small, poorly fitted or top-dose-only effect; inactive means no such curve, though single readings can be large or run the other way. Potencies of inconclusive entries are left out as doubtful fits.

test: A quantitative high throughput screen for small molecules that induce DNA re-replication in MCF 10a normal breast cells.; further: nearly all actives have a fitted effect of over 50% in size; on activity, positive = re-replication: % of control where 0% means no effect; details: MCF 10A DNA re-replication, Hoechst nuclear intensity, 48 h; activity, positive = re-replication: at 46.1 µM (top of the series)
Potency means the concentration at half of the fitted maximal effect; tags describe the fitted curve by direction and shape.

SMILES | Potency | activity, positive = re-replication
NC1=NC2=C(CCCC2)C2(CCCCC2)S1 | inconclusive [activator, partial curve, poor fit] | –
Cc1onc(-c2ccccc2Cl)c1C(=O)Nc1cccc(-c2nc3ncccn3c2C)c1 | inconclusive [activator, single point] | –
COc1ccc(C)c2sc(N(CCCN(C)C)C(=O)c3ccc(S(=O)(=O)N4CCc5ccccc5C4)cc3)nc12 | active: 16.4 µM | –
Cc1ccc(Cn2c(C3CCCN3c3nc(-c4cc(Cl)c(N)c(Cl)c4)cs3)nc3cc(C(=O)NCCCO)ccc32)cc1 (stereo unspecified) | inconclusive [activator, partial curve, poor fit] | –
C=CCSC1=N/C(=C\C=C\c2ccco2)C(=O)S1 | inconclusive [activator, single point] | –
COC(=O)c1cc2c(s1)-c1cc(F)ccc1OC2 | inconclusive [activator, single point] | –
COc1ccccc1CC(=O)NCc1csc(-c2cccs2)n1 | inconclusive [activator, single point] | –
O=C(NNS(=O)(=O)c1ccccc1)C1CCCCC1 | inactive | –
COc1cc(/C=C2\SC(=N)N(c3ccc4c(c3)OCO4)C2=O)cc(OC)c1O | inconclusive [activator, single point] | –
O=C(CNC(=O)c1ccco1)Nc1ccc(S(=O)(=O)N2CCCC2)cc1 | – | inactive: 54.7% [at 0.0737 µM]
COc1ccc(N(CC(=O)NCCc2ccccc2)C(=O)CCC(=O)Nc2nccs2)c(OC)c1 | inconclusive [activator, single point] | –
Cc1nc(N2CCc3ccccc3C2)[nH]c(=O)c1CCC(C)C | inactive | –
COc1ccc(NC(=O)Nc2ccc3c(c2)CC(=O)N([C@H](C)CO)C[C@@H](C)[C@H](CN(C)C(=O)Nc2ccccc2)O3)cc1 | inconclusive [activator, partial curve, poor fit] | –
O=C(OCC(=O)c1c[nH]c2ccccc12)c1cncc(Br)c1 | inconclusive [activator, partial curve, poor fit] | –
O=C(NCCN1CCOCC1)C1(C(F)(F)F)C/C(=C\Cc2ccccc2)CCCO1 (stereo unspecified) | inconclusive [activator, partial curve, poor fit] | –
Cc1nc(SCc2nc3ccccc3[nH]2)c2oc3ccccc3c2n1 | inconclusive [activator, partial curve, poor fit] | –
CCCCNc1c2c3c(cccc3n(C)c1=O)C(=O)c1ccccc1-2 | inconclusive [activator, full curve, poor fit] | –
CC(C)CC(=O)Nc1ccnn1C1CCN(C(=O)c2ccc(F)cc2Cl)CC1 | inactive | –
CCOC(=O)c1ccc(NC(=O)C23CCC(C)(C(=O)O2)C3(C)C)cc1 (stereo unspecified) | inactive | –
NNc1nc2c(F)cccc2s1 | inconclusive [activator, single point] | –
O=C(CN1C(=O)C2CC=C(Cl)CC2C1=O)N1CCOCC1 (stereo unspecified) | inconclusive [activator, single point] | –
CCOC(=O)c1csc(NC(=O)c2ccc(S(=O)(=O)N(C)C)cc2)n1 | inactive | –
O=C(Nc1ccccc1Oc1cccnc1)C1CCCN(C/C=C/c2ccc(F)cc2)C1 (stereo unspecified) | inconclusive [activator, partial curve, poor fit] | –
O=C(NC(=S)NC1C2CC3CC(C2)CC1C3)c1ccccc1 (stereo unspecified) | inconclusive [activator, single point] | –

SMILES | Potency | activity, positive = re-replication
CC(=O)Nc1cccc(C(=O)OCC(=O)Nc2ccc(Cl)cn2)c1 | inconclusive [activator, full curve, poor fit] | –
O=C(CSc1nnc(-c2ccc(O)cc2)n1-c1ccccc1)CC(=O)Nc1ccccc1 | inconclusive [activator, partial curve, poor fit] | –
CCCOC(=O)CSC1=C(C#N)C(c2ccccc2OC)C(C#N)C(=O)N1 (stereo unspecified) | inconclusive [activator, single point] | –
CC(C)Oc1ccccc1C1CC(=O)Nc2cc3c(cc21)OCCO3 (stereo unspecified) | inconclusive [activator, full curve, poor fit] | –
CCOC(=O)c1ccc(-c2c(-c3cc(OC)c(OC)c(OC)c3)noc2C)cc1F | active: 1.46 µM | –
CCN(CC)c1nc(-c2ccc(C(=O)NN)cc2)nc(-c2ccc(C(=O)NN)cc2)n1 | inactive | –
Cc1ccc(S(=O)(=O)Nc2ccccc2N=Cc2c(F)c(F)c(F)c(F)c2F)cc1 | inconclusive [activator, single point] | –
Nc1ncc(-c2ccccc2)c(-c2ccc(O)cc2O)n1 | inconclusive [activator, full curve] | –
O=S(=O)(Nc1cc2nc3ccccc3nc2n1Cc1ccccc1)c1ccc(Cl)cc1 | active: 7.31 µM | –
O=S(=O)([N-]c1nc2ccccc2nc1-n1cc[n+](Cc2ccccc2)c1)c1ccccc1 | active: 6.51 µM | –
CCC1CCCCN1C(=O)CSc1nc2ccsc2c(=O)n1Cc1ccccc1 (stereo unspecified) | inconclusive [activator, single point] | –
CCOC(=O)N1CCN(C(=O)CSc2nc(C)nc3c2c(=O)n(C)c(=O)n3C)CC1 | active: 0.651 µM | –
COC(=O)C1CSC2c3ccccc3C(=O)N12 (stereo unspecified) | inconclusive [activator, single point] | –
CCc1nc2nc(C)c(NS(=O)(=O)c3ccc(C)c(C)c3)c(=O)n2[nH]1 | inconclusive [activator, single point] | –
COc1ccc(-c2nc3n(c2C)Cc2ccccc2-3)cc1 | inconclusive [activator, partial curve, poor fit] | –
O=[N+]([O-])c1ccc2nc[nH]c2c1 | inactive | –
CCCCOc1ccc(OCCSc2nc3ccccc3n2CC(=O)O)cc1 | inactive | –
O=C(NCc1cccnc1)c1ccccc1-c1nc(-c2ccccc2)no1 | inactive | –
COc1ccc(-c2nc(NC(C)=O)sc2-c2ccccc2)cc1 | active: 23.1 µM | –
CC12CCC(C(S(=O)(=O)Nc3ccccc3)C1=O)C2(C)C (stereo unspecified) | inactive | –
O=[N+]([O-])c1cc([N+](=O)[O-])c2nonc2c1Nc1ccc(O)cc1 | inactive | –
Cc1ccc(N2CC(C(=O)Nc3nnc(SCCC4OCCO4)s3)CC2=O)cc1 (stereo unspecified) | inactive | –
C/C(=N\N=C(N)N)c1ccc(Cl)c(Cl)c1 | inconclusive [activator, single point] | –
CC(c1ccccc1)N(CC(=O)NC1CCCCC1)S(=O)(=O)c1cccc(C(F)(F)F)c1 (stereo unspecified) | inconclusive [activator, single point] | –

SMILES | Potency | activity, positive = re-replication
CCOC(=O)Cn1c(=O)c2c(nc(Br)n2Cc2ccccc2Cl)n(C)c1=O | inactive | –
CN(C)CCOc1ncnc2c1oc1ccccc12 | inactive | –
COc1ccccc1C(=O)NC(CCSC)C(=O)NCC(c1ccco1)N(C)C (stereo unspecified) | inactive | –
CCOC(=O)/C(=C/C=C/c1ccccc1)NC(=O)c1ccccc1 | inactive | –
c1ccc(N2CCN(Cc3cnc(N4CCOCC4)s3)CC2)cc1 | inconclusive [activator, single point] | –
COc1cc(CC(=O)N(C)CC(=O)Nc2cc(C)ccc2C)cc(OC)c1OC | inactive | –
Nc1c(C(=O)O)sc2nc(-c3ccccc3)cc(-c3ccc(Cl)cc3)c12 | inconclusive [activator, single point] | –
COc1cccc(/C=N/NC(=O)CNC(=O)C(c2ccccc2)c2ccccc2)c1O | inconclusive [activator, partial curve, poor fit] | –
NC(=O)c1ccc(/C=N/O)nc1 | inactive | –
COc1ccc(S(=O)(=O)N2CCCC2C(=O)n2nc(C)cc2C)cc1 (stereo unspecified) | inconclusive [activator, single point] | –
c1ccc2c(c1)CC/C2=N/Nc1nc2ccccc2[nH]1 | active: 23.1 µM | –
COc1ccc(CCNC(=O)C2CCCN2C(=O)Nc2cccc(OC)c2)cc1 (stereo unspecified) | inactive | –
COc1ccc(NC(=O)Cc2ccc(C)cc2)cc1S(=O)(=O)N1CCCCC1 | inactive | –
C=CCN(CC=C)C(=S)NC(=O)c1ccc(C)c(Br)c1 | inconclusive [activator, single point] | –
COc1cc(NC(=O)C(=O)Nc2ccc3nc4n(c(=O)c3c2)CCCCC4)cc(OC)c1OC | inconclusive [activator, partial curve, poor fit] | –
CC(C(=O)Nc1ccc(S(=O)(=O)N2CCCC2)cc1)N(C)CC(=O)Nc1cccc(F)c1 (stereo unspecified) | inconclusive [activator, single point] | –
COc1ccc(C(=O)/C=C/c2cccnc2)c(OC)c1 | inconclusive [activator, single point] | –
CCOP(=O)(OCC)C(NC(=O)Nc1ccc(Cl)cc1)C(N)=O (stereo unspecified) | inconclusive [activator, single point] | –
CCOC(=O)CSc1nc(-c2ccc3c(c2)OCO3)ccc1C#N | active: 16.4 µM | –
CSc1nc(=S)cc(C)[nH]1 | inactive | –
Cc1ccc(C(C)C)c(OCC(=O)N/N=C/c2cccn2C)c1 | inconclusive [activator, single point] | –
CC(C)CCOc1ccc(/C=N/N2C(=O)CSC2=S)cc1 | inconclusive [activator, single point] | –
CCOC(=O)c1sc(N2C(=O)C(O)=C(C(=O)c3ccco3)C2c2ccc([N+](=O)[O-])cc2)nc1C (stereo unspecified) | inconclusive [activator, single point] | –
